We go through 79 sequences from the supplement of paper PMC10126150.

Values marked as one replicate rest on one cluster of the flow cell; about a third of the high ones do not repeat.

The data set relates to ATP. Description: switch fluorescence ratio, 500 uM ATP over buffer (Cy3 cluster intensity, sum of 5 cycles each) (fold (ratio)); higher = stronger signal-on switching upon ATP binding; sequences stand for … in TCGTCGGCAGCGTCAGATGTGTATAAGAGACAGTTTTTTTTTTTTTTTTTTTTTTTTT…TC. The note with it: aptamer strand: ATP DNA aptamer (quencher-CACCTGGGGGAGTATTGCGGAGGAAGG + anchor), 100 nM annealed; ATP concentration: 500 uM; one replicate. In a few lines:
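The fluorescence ratio divides summed target-cycle Cy3 intensity by summed buffer-cycle Cy3 intensity for each cluster and is averaged per switch-domain sequence. Cy3-labelled switching-strand clusters on a modified Illumina MiSeq flow-cell were annealed to 100 nM quencher-labelled ATP aptamer, then imaged in selection buffer and again after 15 min with 500 uM ATP at 22 °C. Five such cycles were run, with NaOH stripping and re-annealing between them, and clusters outside 100-1000 RFU were excluded.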
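Further: ATP exposure 15 min at 22 °C before imaging.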

With GATTTGAGGT, the switch fluorescence ratio amounted to 0.975.

As for TACATTCTGT, the switch fluorescence ratio amounted to 1.

GTTGGAGAGC: the switch fluorescence ratio is 0.964.

Turning to TCAAGTGG, the switch fluorescence ratio turned out to be 1.02.

On to TGCAGTACT, for which the switch fluorescence ratio was 5.7.

As to TTTATGAAA, the switch fluorescence ratio came to 0.965.

On to ATGCCACCCG, for which the switch fluorescence ratio turned out to be 1.05.

On to TCCCTGCTTG, for which the switch fluorescence ratio is 1.01.

GACTCATAAG: the switch fluorescence ratio amounted to 0.954.

In the case of ACAAGTTCCC, the switch fluorescence ratio was determined as 0.992.

Regarding AACTACGCGC, the switch fluorescence ratio came out at 2.16.

As for TAATTGTGCA, the switch fluorescence ratio came out at 1.02.

Consider TCCGGCGATC, for which the switch fluorescence ratio came to 3.73.

In the case of TCACTAATA, the switch fluorescence ratio was 1.04.

On to GTTACCAGTG, for which the switch fluorescence ratio is 1.1.

For TTCCCGGGCT, the switch fluorescence ratio was determined as 1.02.

For the sequence ACGGGGAATA, the switch fluorescence ratio is 1.09.

For AACTTTTGTC, the switch fluorescence ratio was determined as 1.01.

Regarding GACTGGCCGT, the switch fluorescence ratio amounted to 1.03.

As to ACGTTGCATA, the switch fluorescence ratio was 1.13.

With ATGATAAATC, the switch fluorescence ratio turned out to be 0.994.

Consider TCCGGGTTCA, for which the switch fluorescence ratio worked out at 0.981.

In the case of TCTGGTGGCG, the switch fluorescence ratio was 0.969.

For the sequence TTGCCAAAGA, the switch fluorescence ratio was determined as 0.981.

GGGAGGGAC: the switch fluorescence ratio amounted to 0.983.

With GGGCACGCGC, the switch fluorescence ratio worked out at 1.04.

Take GTCGGTGCAT: the switch fluorescence ratio was 0.974.

As to CTGCTACCTT, the switch fluorescence ratio worked out at 1.07.

For the sequence ACCCACGTAC, the switch fluorescence ratio amounted to 2.

Regarding TCTTCCTAAA, the switch fluorescence ratio came to 1.03.

As for TTAAAGCCTC, the switch fluorescence ratio was 1.04.

For CGATTAATTA, the switch fluorescence ratio is 0.996.

As for TCTCACCTGT, the switch fluorescence ratio worked out at 1.02.

As for TAACGCTGTA, the switch fluorescence ratio came to 1.01.

GACTGTTGA: the switch fluorescence ratio was 0.947.

Turning to AGTTTATCTC, the switch fluorescence ratio stood at 1.05.

Regarding GCTAAAAATG, the switch fluorescence ratio was 0.986.

CGCAGCTTGA: the switch fluorescence ratio was determined as 1.2.

With AGAATGACA, the switch fluorescence ratio was 1.06.

As to GCAAAAGGCT, the switch fluorescence ratio came out at 0.983.

Consider GTTTTGGTCA, for which the switch fluorescence ratio worked out at 0.999.

Take AAAGCGGGGT: the switch fluorescence ratio worked out at 1.

With ATTTCCCTTA, the switch fluorescence ratio was determined as 0.989.

Turning to ACGGACTCTC, the switch fluorescence ratio turned out to be 1.26.

Turning to CGACGGGACA, the switch fluorescence ratio was 1.13.

Consider ATCGGTTGGG, for which the switch fluorescence ratio is 1.

As for TAAGGAATA, the switch fluorescence ratio came out at 1.06.

Turning to ATCCGAAAGG, the switch fluorescence ratio is 1.04.

In the case of GTGATAAGGA, the switch fluorescence ratio stood at 0.972.

In the case of TTCGCGAATT, the switch fluorescence ratio worked out at 0.978.

As to TCACTTCCGT, the switch fluorescence ratio came to 1.16.

For TGTGCGAGGG, the switch fluorescence ratio came out at 0.991.

Turning to ACAGGGGTA, the switch fluorescence ratio is 1.06.

On to CTTTATATC, for which the switch fluorescence ratio is 1.01.

ACCCGATACG: the switch fluorescence ratio was found to be 1.27.

As for GGTTAGTTA, the switch fluorescence ratio came to 1.

CCATGGCTAG: the switch fluorescence ratio came out at 1.02.

For the sequence TGTCCTTTTA, the switch fluorescence ratio is 1.

Take GGCAGAGAAC: the switch fluorescence ratio was found to be 1.02.

For CATAGAAGTG, the switch fluorescence ratio stood at 1.

In the case of ACGGACCACC, the switch fluorescence ratio is 1.46.

GTACACACGA: the switch fluorescence ratio was 1.25.

Consider ACGGATGAGA, for which the switch fluorescence ratio worked out at 1.05.

Regarding TTCGAGTATC, the switch fluorescence ratio is 1.

TGTGCTCATG: the switch fluorescence ratio amounted to 1.03.

For GGACACCGGA, the switch fluorescence ratio was determined as 1.03.

For the sequence GGTTACACCC, the switch fluorescence ratio worked out at 1.09.

For the sequence GACCGCGGTT, the switch fluorescence ratio stood at 1.05.

Turning to GACTCATTTT, the switch fluorescence ratio worked out at 0.996.

In the case of ACCCTTGGCC, the switch fluorescence ratio worked out at 0.997.

For GCAATATTGG, the switch fluorescence ratio stood at 1.06.

AAAATGAACT: the switch fluorescence ratio stood at 1.03.

In the case of AAAGATTTT, the switch fluorescence ratio is 1.11.

On to CCTGTAGCGC, for which the switch fluorescence ratio worked out at 1.49.

Consider TGTGGCCGAA, for which the switch fluorescence ratio was found to be 0.999.

With ATGGCGCGCA, the switch fluorescence ratio was found to be 1.07.

In the case of CTTTTTGGTC, the switch fluorescence ratio came out at 1.

Regarding GCCGGGTTT, the switch fluorescence ratio is 0.946.

TAGCCAGGTC: the switch fluorescence ratio amounted to 1.14.
